These results are taken from PMC5268426.

Amino acid sequences for entries named in this document (tags omitted). A change or cut given only in a name is not applied to a line headed by its entry.
UniProt Q16651: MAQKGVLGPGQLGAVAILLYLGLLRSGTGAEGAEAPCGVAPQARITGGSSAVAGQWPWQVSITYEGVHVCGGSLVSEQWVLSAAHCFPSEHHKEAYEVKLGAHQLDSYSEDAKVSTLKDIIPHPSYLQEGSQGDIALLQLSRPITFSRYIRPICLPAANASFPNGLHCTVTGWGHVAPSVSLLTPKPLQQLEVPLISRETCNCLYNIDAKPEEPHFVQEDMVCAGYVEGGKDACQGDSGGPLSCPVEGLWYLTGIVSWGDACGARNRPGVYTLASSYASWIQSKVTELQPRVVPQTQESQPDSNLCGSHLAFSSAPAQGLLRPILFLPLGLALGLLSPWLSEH

The target in assay [1] is T1, hepatocyte growth factor activator inhibitor (HAI)-2 (human (endogenous in Caco-2, human intestine tissue, LNCaP, HaCaT, 184 A1N4)) (UniProt O43291).
T1 sequence (chain, extensive N-glycan branching (species recognised by mAb DC16)): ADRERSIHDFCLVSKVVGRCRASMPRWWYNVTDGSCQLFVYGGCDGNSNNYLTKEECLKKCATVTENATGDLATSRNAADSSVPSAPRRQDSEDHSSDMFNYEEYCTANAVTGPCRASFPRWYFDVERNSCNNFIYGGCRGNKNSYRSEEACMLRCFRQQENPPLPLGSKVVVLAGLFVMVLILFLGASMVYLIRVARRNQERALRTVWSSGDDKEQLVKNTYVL
Description: co-IP; sequential immunoaffinity columns (M19-Sepharose anti-HAI-1, DC16-Sepharose anti-HAI-2, YL11-Sepharose anti-prostasin) on Caco-2 lysate; washed with PBS with 1% Triton X100, eluted with 0.1 M glycine buffer; eluates blotted for prostasin with mAb YL11.

The target in assay [2] is T1, hepatocyte growth factor activator inhibitor (HAI)-2 (human (endogenous in Caco-2, human intestine tissue, LNCaP, HaCaT, 184 A1N4)). The assay is described as follows: co-IP; immunodepletion-immunoblot: Caco-2 lysate (200 ul) with 15 ul mAb-Sepharose beads, 2 hours in a cold room, supernatant blotted; matriptase depletion on lysate of cells activated at pH 6.0.
Assay [3] has as its target activated matriptase (human (endogenous in Caco-2, human intestine tissue)) (UniProt Q9Y5Y6). The assay is described as follows: immunoblot of SDS-stable protease-inhibitor complexes (non-reducing, non-boiled SDS-PAGE); lysate of frozen human intestine tissue in RIPA buffer; blots with matriptase, prostasin, HAI-1 and HAI-2 mAbs.
The target is the same in assay [4]. Description: immunoblot of SDS-stable protease-inhibitor complexes (non-reducing, non-boiled SDS-PAGE); Caco-2 lysates; cells in PBS or in phosphate buffer pH 6.0 for 20 min to induce matriptase zymogen activation; samples without reducing agent, room temperature 5 min, 7.5% SDS-PAGE.
The target in assay [5] is activated prostasin (human (endogenous in Caco-2, human intestine tissue, LNCaP, HaCaT, 184 A1N4)) (UniProt Q16651). The assay is described as follows: co-IP; immunodepletion-immunoblot: Caco-2 lysate (200 ul) with 15 ul mAb-Sepharose beads, 2 hours in a cold room, supernatant blotted; matriptase depletion on lysate of cells activated at pH 6.0.
The target is the same in assay [6]. The assay is described as follows: immunoblot of SDS-stable protease-inhibitor complexes (non-reducing, non-boiled SDS-PAGE); lysate of frozen human intestine tissue in RIPA buffer; blots with matriptase, prostasin, HAI-1 and HAI-2 mAbs.
For assay [7] the target is unchanged. Description: co-IP; immunodepletion-immunoblot: human intestine tissue lysate with prostasin mAb YL-11-Sepharose or HAI-2 mAb DC16-Sepharose, depleted lysate blotted for HAI-2 species.
Assay [8] has as its target T2, activated matriptase (human (endogenous in Caco-2, human intestine tissue)), Q9Y5Y6.
T2 chain: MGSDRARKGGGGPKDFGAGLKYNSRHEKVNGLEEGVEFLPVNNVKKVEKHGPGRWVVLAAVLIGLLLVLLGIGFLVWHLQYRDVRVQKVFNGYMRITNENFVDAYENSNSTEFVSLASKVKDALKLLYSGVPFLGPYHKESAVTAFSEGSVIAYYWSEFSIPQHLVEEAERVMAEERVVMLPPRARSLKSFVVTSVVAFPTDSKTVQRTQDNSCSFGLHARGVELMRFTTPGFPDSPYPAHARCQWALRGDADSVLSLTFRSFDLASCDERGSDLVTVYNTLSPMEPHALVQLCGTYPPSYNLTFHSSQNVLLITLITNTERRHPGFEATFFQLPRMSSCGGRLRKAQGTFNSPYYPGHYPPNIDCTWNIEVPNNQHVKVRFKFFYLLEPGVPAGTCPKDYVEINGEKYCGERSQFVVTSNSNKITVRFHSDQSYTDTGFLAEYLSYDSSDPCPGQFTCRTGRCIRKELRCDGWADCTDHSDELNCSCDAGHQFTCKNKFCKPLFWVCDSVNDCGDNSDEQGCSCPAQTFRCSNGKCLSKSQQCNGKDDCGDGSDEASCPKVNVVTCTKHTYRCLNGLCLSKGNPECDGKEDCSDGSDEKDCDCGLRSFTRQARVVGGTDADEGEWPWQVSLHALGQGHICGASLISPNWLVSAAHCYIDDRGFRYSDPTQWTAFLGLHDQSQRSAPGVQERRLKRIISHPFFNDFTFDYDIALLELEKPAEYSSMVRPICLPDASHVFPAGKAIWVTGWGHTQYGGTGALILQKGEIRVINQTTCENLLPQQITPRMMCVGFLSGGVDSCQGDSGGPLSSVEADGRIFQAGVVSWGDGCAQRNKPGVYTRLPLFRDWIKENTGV
Description: immunoblot of SDS-stable protease-inhibitor complexes (non-reducing, non-boiled SDS-PAGE); Caco-2 lysates; cells in PBS or in phosphate buffer pH 6.0 for 20 min to induce matriptase zymogen activation; samples without reducing agent, room temperature 5 min, 7.5% SDS-PAGE. Particulars: remark: other sources report otherwise.

In assay [9] the target is T2, activated matriptase (human (endogenous …)). The assay is described as follows: co-IP; immunodepletion-immunoblot: Caco-2 lysate (200 ul) with 15 ul mAb-Sepharose beads, 2 hours in a cold room, supernatant blotted; matriptase depletion on lysate of cells activated at pH 6.0. The settings on record: remark: other sources report otherwise.

No constants are given. Whether binding was seen depends on the method and setting. For part of these data: In cells and extracts the contact can be indirect. Some results given as binding are weak or reduced against the parent protein; the word gives no strength.

On to “activated prostasin (from UniProt Q16651 33-44; Q16651 45-322) (enzyme)”, for which the binding entry in [1] and in assay [2] was “binds” in each case.

B1: hepatocyte growth factor activator inhibitor (HAI)-1 (protein, UniProt O43278 36-529)
chain: GPPPAPPGLPAGADCLNSFTAGVPGFVLDTNASVSNGATFLESPTVRRGWDCVRACCTTQNCNLALVELQPDRGEDAIAACFLINCLYEQNFVCKFAPREGFINYLTREVYRSYRQLRTQGFGGSGIPKAWAGIDLKVQPQEPLVLKDVENTDWRLLRGDTDVRVERKDPNQVELWGLKEGTYLFQLTVTSSDHPEDTANVTVTVLSTKQTEDYCLASNKVGRCRGSFPRWYYDPTEQICKSFVYGGCLGNKNNYLREEECILACRGVQGGPLRGSSGAQATFPQGPSMERRHPVCSGTCQPTQFRCSNGCCIDSFLECDDTPNCPDASDEAACEKYTSGFDELQRIHFPSDKGHCVDLPDTGLCKESIPRWYYNPFSEHCARFTYGGCYGNKNNFEEEQQCLESCRGISKKDVFGLRREIPIPSTGSVEMAVAVFLVICIVVVVAILGYCFFKNQRKDFHGHHHHPPPTPASSTVSTTEDTEHLVYNHTTRPL
In the case of B1, the binding result in [3] and in [4] was “binds” each time.

B2: hepatocyte growth factor activator inhibitor (HAI)-2 (protein, UniProt O43291 28-252)
chain: ADRERSIHDFCLVSKVVGRCRASMPRWWYNVTDGSCQLFVYGGCDGNSNNYLTKEECLKKCATVTENATGDLATSRNAADSSVPSAPRRQDSEDHSSDMFNYEEYCTANAVTGPCRASFPRWYFDVERNSCNNFIYGGCRGNKNSYRSEEACMLRCFRQQENPPLPLGSKVVVLAGLFVMVLILFLGASMVYLIRVARRNQERALRTVWSSGDDKEQLVKNTYVL
modifications: extensive N-glycan branching (species recognised by mAb DC16)
Consider B2, for which the binding entry in assay [5], in [6] and in assay [7] was “binds” throughout.

B3: hepatocyte growth factor activator inhibitor (HAI)-2, O43291 28-252 (protein)
chain: ADRERSIHDFCLVSKVVGRCRASMPRWWYNVTDGSCQLFVYGGCDGNSNNYLTKEECLKKCATVTENATGDLATSRNAADSSVPSAPRRQDSEDHSSDMFNYEEYCTANAVTGPCRASFPRWYFDVERNSCNNFIYGGCRGNKNSYRSEEACMLRCFRQQENPPLPLGSKVVVLAGLFVMVLILFLGASMVYLIRVARRNQERALRTVWSSGDDKEQLVKNTYVL
modifications: here or on the partner: extensive N-glycan branching (species recognised by mAb DC16)
Take B3: the binding result in [8] and in assay [9] was “no binding” each time.
